According to patent US20060073146A1 (Genentech, published 2006):

T1: TACI (the 265 amino acid form of human TACI, hTACI (265)), expressed on transfected cells (human, UniProt O14836 1-258)
T1 sequence: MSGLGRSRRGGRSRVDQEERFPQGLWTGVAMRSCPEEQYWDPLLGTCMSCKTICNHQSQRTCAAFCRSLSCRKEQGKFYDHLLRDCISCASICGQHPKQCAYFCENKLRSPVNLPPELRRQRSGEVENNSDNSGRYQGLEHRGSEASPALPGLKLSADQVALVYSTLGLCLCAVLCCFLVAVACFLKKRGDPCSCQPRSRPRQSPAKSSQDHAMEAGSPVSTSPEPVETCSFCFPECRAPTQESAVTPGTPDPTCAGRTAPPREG

T2: DcR3-IgG (IgG1-Fc fusion of the ECD of DcR3) (human, UniProt O95407 30-300, limits assumed)
T2 construct: extracellular domain; Control immunoadhesin; not shown: IgG1 Fc
T2 sequence (looked up): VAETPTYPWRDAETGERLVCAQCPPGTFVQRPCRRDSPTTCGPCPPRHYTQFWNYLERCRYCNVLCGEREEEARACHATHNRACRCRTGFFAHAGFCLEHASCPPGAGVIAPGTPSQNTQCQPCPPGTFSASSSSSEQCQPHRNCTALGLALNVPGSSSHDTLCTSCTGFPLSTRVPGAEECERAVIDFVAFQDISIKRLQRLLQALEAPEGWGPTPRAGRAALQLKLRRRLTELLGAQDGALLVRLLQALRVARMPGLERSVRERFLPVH

B1: AP-TALL-1 (Example 1 construct: human placenta alkaline phosphatase fused to the N-terminus of TALL-1 […]) (ligand)
chain: not shown
notes: Cloned into pCMV-1 Flag and expressed in 293 cells; used as conditioned medium; not shown: human placenta alkaline phosphatase (AP), PCR-amplified from pAPtag-5 (Genehunter)
B2: Flag-TALL-1 (ligand, not shown: small tags and cut ends)
chain: not shown
notes: also called Blys/TALL-1
B3: Flag-AP-TALL-1 (Example 2 construct, TALL-1 […]) (ligand)
chain: not shown
notes: not shown: Flag tag of the pCMV-1 Flag vector; human placental alkaline phosphatase

Columns and labels:
[1] = biological target: T1, TACI (the 265 amino acid form of human …); assay: expression cloning: cDNA pools in COS 7 cells, AP-TALL-1 conditioned medium, in situ AP staining
Method: To identify a receptor for TALL-1, a cDNA expression library was constructed in pRK5 vector (EP 307,247, published Mar. 15, 1989) using PolyA+ mRNA derived from the IM-9 cells [Flanagan et al., Cell, 63:185 (1990)]. Pools of ˜1000 cDNA clones (Miniprep DNA (Qiagen)) from the library were transfected (using Lipofectamine) into COS 7 cells (ATCC) in 6 well plates, which after 36-48 hours, were then incubated with AP-TALL-1 conditioned medium, washed, and stained for AP activity in situ. A positive pool was broken down to successively smaller size pools. After three rounds of screening, a single cDNA encoding an AP-TALL-1 binding activity was identified.

[2] = biological target: T2, DcR3-IgG (IgG1-Fc fusion of the ECD of …); assay: co-immunoprecipitation (protein A or anti-Flag M2 agarose) and Western blot
Method: One μg of the purified human or Flag-LIGHT (control), Flag-APRIL, or Flag-TALL-1, or Flag-AP-APRIL, or Flag-AP-TALL-1 was incubated with 1 μg of purified human immunoadhesin containing the IgG1-Fc fusion of the ECD of DcR3 (control; Pitti et al., Nature, 396:699-703 (1998)) or TACI or BCMA overnight at 4° C. in duplicate. The TACI-ECD.hFc immunoadhesins were prepared by methods described in Ashkenazi et al., Proc. Natl. Acad. Sci., 88:10535-10539 (1991). The immunoadhesin constructs consisted of amino acids 2-166 of the human TACI polypeptide (see FIG. 1). The TACI-ECD constructs were expressed in CHO cells using a heterologous signal sequence (pre-pro trypsin amino acids 1-17 of pCMV-1 Flag (Sigma)) and encoding the human IgG1 Fc region downstream of the TACI sequence, and then purified by protein A affinity chromatography. The BCMA-ECD immunoadhesins were prepared by methods described in Ashkenazi et al., as cited above. […]
One set of reactions (FIG. 8; Panels A-C) was subjected to immunoprecipitation through the receptor-immunoadhesin with protein A-agarose (Repligen). […] The immunoprecipitates were then analyzed by Western blot with horseradish peroxidase-conjugated anti-Flag M2 mAb (Sigma) to detect the Flag-tagged ligands (FIGS. 8A-C) or horseradish peroxidase-conjugated goat anti-human IgG pAb (Amersham) to detect the receptor-immunoadhesins (FIGS. 8D-F).

Binder | binding result [1] | binding result [2]
B1 | binds | 
B2 |  | no binding (tested: 1 µg of each)
B3 |  | no binding (tested: 1 µg of each)
